From the supplement of paper PMC12632987 come the findings set out here.

Whole data set: some 1,800 sequences, median “median log2 fold change of GCK-ALFA target abundance (FLAG IP / Myc IP barcode read proportion)” near 0.14, cut for the lowest 2% near -0.84. Some of the results follow.

The chains are these.
B1: traf2_out_16_104_1373 (protein)
chain: SEELERRLEELRRELEEVESEYNRVAQQALEQLPSLSEEERQKVLDLLADASEARRRAKEALERAERLLREGGPEEEIERELEEAERYLEELRALIEQLK
B2: traf2_out_1_158_908 (protein)
chain: STDVSTLHAVATSIAEVYAEEAKERGLEKAAELLKKLKKEIEKLYEANKDASLEEMAAKVLELIKKFEEESKSFDPETREFVEIAFRQIRSGILQVVKLA
B3: traf2_out_11_79_937 (protein)
chain: EEKKKKLLELLKEALKLLEELLKKMKEGTISKEEREKMLDEIERLLQKAAMLALELGLSDVLVKISEAKRHVRLAYSGDLKSIEEAIKEVKEAIKLLEKA
B4: traf2_out_17_35_1754 (protein)
chain: MSETEKEREIANEIADKILEESDKKNEELEKVYEETKDKKAVVEKTKEILKEYGIEEEEIKLLEEHYKTGNDEEILEFSKSLVRRAVGEKYGKEYAEKLK
B5: traf2_out_20_3_2106 (protein)
chain: EELEEELEEELEEALALLEEAAALADPETAARLKALAARVEASRSLPYTDRLVALSEVRREVLLLAQEARAAGREELAAVLEEAAEELNEAMNLVMKIIE
B6: traf2_out_6_156_2401 (protein)
chain: MKEEILKETKAEIEKLIKELSKASEEKKISYINKIAGTVYRGLQRLREAGASVEEIAAFVKEIIEFTEKKLDEEGIEEDIKNLILSSLNAVGDVALASAA
B7: traf2_out_6_169_2500 (protein)
chain: MEKEELLKEAERHRKRAEELLKLAETIYKQAKENKDKSKIPIYLEAMETMLNALKRHYELAIEALKKLGKEEEAKEAEKKKKEHIEKMEKMIEEIKKMLK
B8: traf2_out_14_149_1247 (protein)
chain: SHMAETLRAAAELNERIAKALEEILKLLEAGKLEEAKAALEAAIKEAEALGEELGVTTSGIFEMEHILKLLKEDPEEAKKAVKEAAERARDAAEVLRSIA
B9: traf2_out_17_162_1494 (protein)
chain: AELEKELKELEKKLKELEKKLKELEEKLKNLEKLSKEEITDLLVEASELKREALELAERLKRLAKETGDPRLKELIEKAEKLAEKAQKIANKIYKELEKK
B10: traf2_out_16_104_1382 (protein)
chain: SAAKEKEFKAIIARLEAIADEANRLANELYELMKTASPEKRKKLSDALVKVSELRREALEAAEKAREALKTGGDLEEARKKLKELEKKLKELKKEVEELK
B11: traf2_out_17_162_1613 (protein)
chain: SELEEKLEELKKKLKELKEKLKELEEKLKNIKELSKEELTDLLVEASEARREALEALEEIKELKDKLDPELYEKLSKEYEELAEKFQEIANKFYKELEKK
B12: traf2_out_16_177_1454 (protein)
chain: ELSKLMDRLVILSEIRRAALEIVESDSPLADEHLARAREEAEEAGDEEGLERIEEIEELRAKNTPEALEKLRELAREAGREAQRLADEAEALIAARAAAE
B13: traf2_out_17_60_1759 (protein)
chain: SAEEEDAALAAEAREAIAEARRLVEEVNAKIEAGTLTADEAMDYLVELTEKRRRLEALRDELEARGPAFAPLAAELAAAIEELRRTANKVGKLLEELLAK
B14: traf2_out_18_167_1863 (protein)
chain: MEELREKLEEATDKLVELSEIRRALLEALQLLEKSREEAKAYLKEKLEELPDSEILKEALEVLETKSDEEFKKFLEEKIEELQKKMNETYKEVEELRKKL
B15: traf2_out_17_35_1756 (protein)
chain: MTPTEKERKIASEIADKILEESDRLNARLDAIWEATGDPQAVVDATKAILDEYGIGEEEKAHLDAHAATATPEELLAVSHALIRRAVGEKYGKKYAELLK
B16: traf2_out_17_178_1659 (protein)
chain: NKEEARAEISAATDELIDLTEATADRLLAILEADGTASPEELAALREARRLGSATTTRALMEAAVPRSPRSAEVAALLDDFTKRSGELAKKIAEAYKKYE
B17: traf2_out_18_3_1929 (protein)
chain: KEEKLQEISDKIDEIIDETTAKAREWLDRLKKEHPEFKARADALLADLEAGAGPFGILDAIAELWREAGDEEEAEEVEKFREEKKKELEKLVEEYLELRK
B18: traf2_out_14_166_1278 (protein)
chain: MTEEEIERIREIVDKLEPLTEEAVKRAEEILEKNKSKLSPEDLKKVEELLEIARRNIGSTAINALEEIAKIYKKAGLEEAAKEMLKLAEELREKLKELNK
B19: traf2_out_11_79_934 (protein)
chain: EELREELLRLLEEALRKVEELIAALRAGTISPEERAALLDEIERLLQRAAELALKLGLSDVLVEISEAKRHVRLAYSGDLEALEEARRELEEAIRLLKEE
B20: traf2_out_20_38_2015 (protein)
chain: SEEEEEEKKEEELIKKAQEAYDEAEAWIAALQAAGKSVDEIAAAAKAEVRELLTKHGLEEEAEELIADIDRVRDSPDALRLIARILARARTLVFQKELQK
B21: traf2_out_6_156_2453 (protein)
chain: AAEAILERTEKEIEEGIKALAAAPEERKIAEINRIAGAFYRGLQALRAAGASLEELRAAAERLLETAEKKAKEAGLDERTRNLLLASLRAVADVALAAAA
B22: traf2_out_6_3_2523 (protein)
chain: SEESLREDARRVLEGMGITTAEQLRRLVRAEVNAVRRLVSRPDTDEADLAGAESVLALAEAVVDVAAEELPDLTEEQVAELRALIEEARKLVEEKRAELA
B23: traf2_out_11_169_862 (protein)
chain: KEEEFNRKLIDFALEVEDEAKKKLKEFALKLAKEAGLDVAEVEAIFEKHKNSSLSAIASALIEYFRSKGKEEEAEKILKKHDELKEEINKKVSEKIKELK
B24: traf2_out_17_178_1694 (protein)
chain: SKEELRKKISELTDKLIDLSDYYGTKLIELVKKEGVLTPEELKLLEEALKSGSNRTILETAEEIIPKSNASEETKKLLEEFKKEYKKISKEIAEAYEKYE
B25: traf2_out_9_17_2611 (protein)
chain: SAEEEELKERLLEAIEEVLKELVEKGYITEEEAEEILKKVKELIEKGASPDEIIAEFLGMIASILLTKSNLSLPEANKIVGEAYRRLQERLEKIEKELAE
B26: traf2_out_11_131_660 (protein)
chain: MDAVATARSAAERVDALLALAETLSPEERHRLALHALDTIEAVAEYLTSHVSTMTKEEVKEAARILREARDRVLALDPRVAPEAAEVEEAIKKLLEAAEE
B27: traf2_out_12_187_973 (protein)
chain: SVEEELIEAAREALRQALAALREAAPEDPRFQEFLERLERLAELLERDPSLAADAAVAASLILRAVRLKEAGLPQAEVDAAAAEAAAELAAVEAAARARE
B28: traf2_out_18_3_1948 (protein)
chain: KEEKRKELSEKLDEVFDDLADWLLARAEELVAEDPRFAPVLERLRALRAQGHLGSSLANTLIDGLLALGEEERAAEVEERYSEFAKKASAIIDEYEKLTS
B29: traf2_out_11_169_869 (protein)
chain: EEKEKNRKLNDFALELNDEAKEKLRDFALALAKEKGLDVEEVKAIFEKNKNKSLSAVASELIRYFKEKGKEEEAEKILKKHEELKEEINKKTSEKIKELE

This assay concerns the target T1, TRAF2, Q12933.
T1 chain: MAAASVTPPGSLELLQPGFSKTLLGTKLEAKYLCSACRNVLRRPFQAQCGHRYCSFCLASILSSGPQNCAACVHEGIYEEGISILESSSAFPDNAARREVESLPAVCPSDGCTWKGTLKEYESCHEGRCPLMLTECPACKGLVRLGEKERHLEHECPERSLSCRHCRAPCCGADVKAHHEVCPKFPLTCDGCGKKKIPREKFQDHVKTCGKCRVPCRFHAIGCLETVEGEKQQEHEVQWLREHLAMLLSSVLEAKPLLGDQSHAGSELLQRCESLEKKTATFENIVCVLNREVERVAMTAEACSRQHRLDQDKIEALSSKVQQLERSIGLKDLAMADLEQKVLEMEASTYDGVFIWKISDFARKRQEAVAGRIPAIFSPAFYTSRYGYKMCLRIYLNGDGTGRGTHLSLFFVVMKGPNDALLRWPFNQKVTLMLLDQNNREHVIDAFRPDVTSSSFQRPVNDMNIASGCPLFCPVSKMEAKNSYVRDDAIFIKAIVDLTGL
Description: median log2 fold change of GCK-ALFA target abundance (FLAG IP / Myc IP barcode read proportion) (log2 ratio); each designed protein is fused to an ALFA-tag nanobody in HEK293 cells to bring the named protein to FLAG-tagged glucokinase (GCK); Myc marks an untargeted standard; higher = target protein stabilised (more abundant). The settings on record: target protein: 3xFLAG-MCP-GCK-ALFA reporter; HEK293 landing pad (RPLP). An outline of the steps:
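The readout is target abundance, the per-binder median log2 ratio of FLAG to Myc barcode read proportions. It came from HEK293 landing-pad cells carrying a recombined ALFA-nanobody-fused binder library, induced with 2 μg mL^−1 doxycycline and transfected with a plasmid for a FLAG-tagged target and a Myc-tagged standard. After 48 h, lysates were immunoprecipitated with anti-FLAG and anti-Myc, and circular RNA barcodes were reverse transcribed, amplified and sequenced. Each barcode needed a proportion of at least 10^−7 in both replicates and each binder at least 3 barcodes per replicate, a pseudocount of 10^−6 was added, and the replicates were pooled.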
For the molecule B1, the “median log2 fold change” value was determined as 0.28. The figure for B2 is 0.0558; for B3 it is 0.000129; for B4 it is 0.269. With B5, the “median log2 fold change” value was determined as 0.0314.

As for B6, the “median log2 fold change” value was -0.198. Take B7: the “median log2 fold change” value is -0.186. As for B8, the figure is -0.194; as for B9, 0.0628.

Regarding B10, the “median log2 fold change” value worked out at 0.0613. For B11, the “median log2 fold change” value was found to be 0.58. Take B12: the “median log2 fold change” value was found to be 0.0863.

On to B13, for which the “median log2 fold change” value is -0.077. As to B14, the “median log2 fold change” value came to 0.306. On to B15, for which the “median log2 fold change” value is 0.172.

Turning to B16, the “median log2 fold change” value was determined as 0.0548. Consider B17, for which the “median log2 fold change” value is -0.0574. As to B18, the “median log2 fold change” value was 0.256. As for B19, the “median log2 fold change” value was -0.0131. Regarding B20, the “median log2 fold change” value was -0.0971. Turning to B21, the “median log2 fold change” value was -0.00113. Regarding B22, the “median log2 fold change” value is -0.222.

Regarding B23, the “median log2 fold change” value is 0.0801. As for B24, the “median log2 fold change” value turned out to be 0.357. In the case of B25, the “median log2 fold change” value was 0.0354. With B26, the “median log2 fold change” value turned out to be 0.0927. Turning to B27, the “median log2 fold change” value amounted to 0.307. The figure for B28 is -0.299; for B29 it is 0.367.
